Consider 67 molecules from PubChem BioAssay AID1347073 (National Center for Advancing Translational Sciences (NCATS), 2019).

SMILES strings stand for the structures. The whole screen tested about 45,000 compounds, of which about 200 (0.44%) were called active. Another 7% or so got no clear call; they are omitted. Calls follow the shape of the dose curve; as a rule, active = well fitted activation curve with a large enough effect; inconclusive = small, poorly fitted or top-dose-only effect; inactive = no such curve, though single readings can be large or run the other way. The list shows a part of the results.

A short description of this assay: qHTS of TDP-43 Inhibitors: NCGC Sytravon Library Screen. Also: 0% is about no effect; nearly all actives have a fitted effect of over 55% in size. The note with it: yeast TDP-43 toxicity rescue, BacTiter-Glo growth, 24 h; series mostly up to 46.1 µM; growth rescue (activation): at the top concentration. An outline of the steps:
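TDP-43-expressing yeast, pregrown in raffinose, seeded at OD600 0.02 in galactose medium with compound for 24 hr at 30 deg C. Growth read by BacTiter-Glo luminescence, so rescue of toxicity appears as activation.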
(qHTS replaces the single test concentration by a dilution series.)
As to `Cc1ccc(C(=O)NN2C(=O)C3C4c5ccccc5C(c5ccccc54)[C@@H]3C2=O)cc1` (some centres not stated), the “growth rescue (activation)” value is inactive: -20%. For `Cc1nnc(SCC2=C(C(=O)O)N3C(=O)C(NC(=O)C(C)n4nc(C(F)(F)F)cc4C)C3SC2)s1` (configuration not stated) the value was inactive: -3.1%; for `Cc1[nH]n(-c2cccc(Cl)c2)c(=O)c1C=NCc1ccco1`, inactive: 19.4%; for `CC(Sc1nnc2c(n1)[nH]c1ccccc12)C(=O)N(C)C1CCCCC1` (configuration not stated), inactive: 8.77%.

As to `O=C(/C=C/c1ccc(Cl)cc1)Nc1ccc(CN2CCOCC2)cc1`, the “growth rescue (activation)” value was inactive: -2.5%. To `CCN(CC)C1=NS(=O)(=O)c2cc([N+](=O)[O-])ccc21` belongs inactive: 6.97%; to `COC(=O)c1cccc(Nc2nc(-c3ccncc3)nc3ccccc23)c1`, inactive: 10.2%.

Consider `O=C(c1cccs1)N1N=C(c2ccccc2)CC1c1ccccc1O` (configuration not stated), for which the “growth rescue (activation)” value is inactive: 10.6%. To `CCCNC(=O)C1(C)CCCN(Cc2ccc(-c3ccccc3)o2)C1` (configuration not stated) belongs inactive: -1.43%; to `O=C1C(Nc2ccc(O)cc2)=C/C(=N/S(=O)(=O)c2cccs2)c2ccccc21`, inactive: -16.4%; to `O=C(Nc1cccc(Cl)c1)c1cncn1-c1ccc(F)cc1`, inactive: 2.61%. To `COc1ccc(OCc2nnc(SC(C)C(=O)Nc3ccc(N4CCOCC4)cc3)n2C)cc1` (configuration not stated) belongs inactive: -10.8%.

As for `O=C(Cc1ccccc1F)NCC(c1ccco1)N1CCCCC1` (configuration not stated), the “growth rescue (activation)” value was inactive: 14.3%. To `Cc1ccc(C(=O)COC(=O)c2cc(=O)[nH]c3ccccc23)cc1` belongs inactive: -21.8%. To `CC(=O)N1CCc2cc(N=NC3=C(O)CC(C)(C)CC3=O)ccc21` belongs inactive: -7.67%; to `N#Cc1ccccc1Sc1ccccc1C(=O)N1CCOCC1`, inactive: -8.83%. For `COc1ccc(OC)c(NC(=O)CCn2ccnc2)c1` the value was inactive: -2.69%. Consider `CC(NC(=O)c1cc2ccccc2oc1=O)c1ccc(O)cc1` (configuration not stated), for which the “growth rescue (activation)” value is inactive: -7.84%. For `COc1ccc(NC(=O)CCS(=O)(=O)c2cccc3nonc23)cc1Cl` the value was inactive: 6.28%; for `COCCN1C(=O)C(CC(=O)Nc2ccc(C(C)=O)cc2)SC1=Nc1ccccc1` (configuration not stated), inactive: 11.2%; for `O=C(O)/C=C/C(=O)Nc1ccc(NC(=O)c2ccccc2)c(Cl)c1`, inactive: -1.28%. As to `NS(=O)(=O)c1cccc(NC(=O)c2ccc(NS(=O)(=O)c3cccc([N+](=O)[O-])c3)cc2)c1`, the “growth rescue (activation)” value is inactive: -9.78%. To `O=C(NC1CC1)C1CCN(C2CCN(C(=O)Cc3ccc(F)cc3)CC2)CC1` belongs inactive: 2.73%; to `Cc1nc2c3cnn(-c4ccc(C)c(C)c4)c3ncn2n1`, inactive: 6.93%. To `O=C(NCc1cccnc1)c1cc(C2CCCCN2S(=O)(=O)c2ccccc2)on1` (configuration not stated) belongs inactive: 20.4%; to `Cc1ccccc1NC1(C#N)C(=O)Nc2ccccc21` (configuration not stated), inactive: 26%. For `CCCc1nc(SCc2ccc(OCC)cc2)n[nH]1` the value was inactive: 16.5%.

For `CCOC(=O)c1ccc2c(c1)nc(-c1ccc(F)cc1)c1nccn12`, the “growth rescue (activation)” value is inactive: 0.578%. To `CSc1nnc(C(C)(C)C)c(=O)n1/N=C/c1ccc(C(C)C)cc1` belongs inactive: -7.85%; to `COc1ccccc1NS(=O)(=O)c1cccc2nsnc12`, inactive: 13.1%; to `COc1cc(/C=N/N2C(C)CCCC2C)cc(Br)c1O` (configuration not stated), inactive: 5.37%.

Regarding `CN(C)CCCn1c(=S)[nH]c2ccccc2c1=O`, the “growth rescue (activation)” value was inactive: -6.09%. For `O=C(CCCN1C(=O)/C(=C\c2cccs2)SC1=S)NNC(=O)c1cccnc1` the value was inactive: 2.4%; for `O=C(N/N=C/c1ccc(C(F)(F)F)cc1)c1ccc(O)cc1`, inactive: 19.5%; for `COc1ccc(NC(=O)C/C(C)=N/NC(=O)c2cnccn2)c(OC)c1`, inactive: -17%. For `Cc1ccc(C)c(S(=O)(=O)N2CCN(Cc3ccc(O)c4ncccc34)CC2)c1` the value was inactive: 18.9%. Consider `COc1ccc(-n2nnnc2SCC(=O)N(C)C2CCS(=O)(=O)C2)cc1` (configuration not stated), for which the “growth rescue (activation)” value was inactive: 1.66%. For `Cc1cc(C(=O)CN2C(=O)NC3(CCCc4sccc43)C2=O)c(C)n1-c1ccc(Cl)cc1` (configuration not stated) the value was inactive: 9.4%; for `O=C(COc1ccc(S(=O)(=O)NC2CCCC2)cc1)NCC1CCCO1` (configuration not stated), inactive: 8.49%; for `CCCC(c1nnnn1C(C)(C)C)N1CCN(Cc2ccccc2OC)CC1` (configuration not stated), inactive: 0.446%. In the case of `CCOC(=O)c1ccc(N2C(=O)c3n[nH]c(C)c3C2c2ccco2)cc1` (configuration not stated), the “growth rescue (activation)” value was inactive: -14.7%. For `Cc1cc(NC(=O)c2ccc(Cl)c(S(=O)(=O)N3CCOCC3)c2)no1` the value was inactive: 2.2%; for `O=C(CCCN1C(=O)/C(=C\c2cccs2)SC1=S)Nc1ccc(C(=O)O)cc1`, inactive: -15.7%; for `CCOc1ccc(CN2CCN(Cc3ccsc3)C(CCO)C2)cc1CO` (configuration not stated), inactive: 14.6%.

Regarding `O=C(Cc1cccc2ccccc12)Nc1cc(Cl)ccc1C(=O)O`, the “growth rescue (activation)” value is inactive: 5%. For `COc1ccc(NC(=O)CN2CCCN(S(=O)(=O)c3ccc(F)cc3)CC2)c(OC)c1` the value was inactive: 8.55%. For `CCn1cc(C(=O)OCC(=O)Nc2cccc(Cl)c2Cl)c(=O)c2ccc(C)nc21` the value was inactive: 36.2%. On to `COc1ccc(OC)c(Cc2nnc(CCC(=O)NC3C4CC5CC(C4)CC3C5)o2)c1` (configuration not stated), for which the “growth rescue (activation)” value is inactive: 9.41%.

In the case of `O=C(O)c1cccc(S(=O)(=O)N2CCCC(c3nc4c(nnn4Cc4ccc(F)cc4)c(=O)[nH]3)C2)c1` (configuration not stated), the “growth rescue (activation)” value is inactive: 14.8%. To `CCS(=O)(=O)N1Cc2ccccc2CC1C(=O)Nc1nnc(SCc2ccc(C#N)cc2)s1` (configuration not stated) belongs inactive: -22.5%; to `N#C/C(=C/c1ccc(N2CCCCC2)o1)C(=O)NCCc1c[nH]c2ccccc12`, inactive: 14%; to `COCCNc1nnc(SCC(=O)Nc2sc3c(c2C(=O)c2ccccc2)CCCC3)s1`, inactive: 25.2%. For `O=C(NC1CCCC1)c1cc(-c2cccc(Cl)c2)on1` the value was inactive: 27.9%. For `O=c1cnnc(Nc2ccc(F)cc2)[nH]1` the value was inactive: 1.41%; for `Cc1nc(C(F)(F)F)ccc1C(=O)N1CCCCCC1(C)C(=O)NCC(C)C` (configuration not stated), inactive: -8.81%; for `Cc1nc2ccccc2nc1OCC(=O)NCC(F)(F)F`, inactive: 4.55%. Consider `CCOc1ccc(OCC)c(NC(=O)CCSCCc2ccccn2)c1`, for which the “growth rescue (activation)” value is inactive: -4.73%. To `COc1cc(C)ccc1S(=O)(=O)NC(=O)C1(C)CCN1C(=O)COc1ccc(Cl)cc1` (configuration not stated) belongs inactive: 6.53%.

In the case of `Cc1ccc(N2CC(C(=O)Nc3nc4ccc(S(C)(=O)=O)cc4s3)CC2=O)cc1C` (configuration not stated), the “growth rescue (activation)” value was inactive: 4.91%. To `CCC(=O)NCCc1nc2cc(NC(=O)c3ccccc3Cl)ccc2n1C` belongs inactive: -16.2%. To `O=C(O)c1cc(-c2cccc(Cl)c2)nc2nc(N3CCCCC3)sc12` belongs inactive: -3.88%.

As for `C=CCc1cccc(/C=N/NC(=O)CCC(=O)Nc2ccc(C)cc2)c1O`, the “growth rescue (activation)” value is inactive: -9.81%.

As for `COc1ccc(C(C)=O)cc1CSc1ncccn1`, the “growth rescue (activation)” value is inactive: 25.3%. For `CCOc1ccc(Cl)cc1S(=O)(=O)N1CCC(C(=O)NCc2cccnc2)CC1` the value was inactive: -5.14%; for `CCN1CC(CN(C)Cc2cn(-c3ccc(C)cc3)nc2-c2cccc(C)c2)CC1=O` (configuration not stated), inactive: 7.14%. For `CN(C)C(=O)c1nc2ccc(Cl)cn2c1CNCc1ccccc1OC(F)(F)F` the value was inactive: -6.08%.

For the molecule `N#C/C(=C\c1cn(Cc2cccc(F)c2)c2ccccc12)C(=O)NCc1ccco1`, the “growth rescue (activation)” value was inactive: -3.86%.
